Reference: PubChem BioAssay AID2147 (National Center for Advancing Translational Sciences (NCATS), 2009)
Hit rate of the full screen: of about 230,000 compounds, about 3,600 (1.6%) were called active. The inconclusive results got no clear call from the source; some entries with a clear call stand among them for comparison. The call rests on the fitted dose curve; in most records, active means well fitted inhibition curve with a large enough effect (not every such curve was filed as active); inconclusive means small, poorly fitted or top-dose-only effect, or another doubt; inactive means no such curve, though single readings can be large or run the other way. Potencies beside an inconclusive call are fits to weak or partial responses and may not hold up.

What follows are compounds tested against Lysine-specific demethylase 4E (Homo sapiens) (UniProt B2RXH2) (assay: qHTS Assay for Inhibitors of Human Jumonji Domain Containing 2E (JMJD2E)). Conditions: JMJD2E catalytic domain, FDH-coupled NADH fluorescence (FDH is formaldehyde dehydrogenase); series mostly up to 57.1 µM; activity change, negative = inhibition: at the top concentration.
Chain of UniProt B2RXH2 (B2RXH2 whole entry, looked up, the tested form may be a part): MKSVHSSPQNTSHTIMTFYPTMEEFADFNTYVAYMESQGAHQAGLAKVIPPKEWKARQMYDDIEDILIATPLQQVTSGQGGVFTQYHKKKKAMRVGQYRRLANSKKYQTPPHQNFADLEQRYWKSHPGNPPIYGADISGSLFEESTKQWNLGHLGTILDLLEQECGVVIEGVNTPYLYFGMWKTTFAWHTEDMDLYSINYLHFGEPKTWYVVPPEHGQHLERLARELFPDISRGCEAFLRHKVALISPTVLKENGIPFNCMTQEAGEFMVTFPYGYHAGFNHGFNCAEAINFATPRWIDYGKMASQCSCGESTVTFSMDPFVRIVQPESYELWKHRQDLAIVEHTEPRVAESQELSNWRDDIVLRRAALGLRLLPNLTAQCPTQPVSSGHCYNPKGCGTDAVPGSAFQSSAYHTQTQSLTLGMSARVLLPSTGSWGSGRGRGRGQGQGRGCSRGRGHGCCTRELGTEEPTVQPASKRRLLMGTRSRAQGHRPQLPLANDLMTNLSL
Further: nearly all actives have a fitted effect of over 50% in size.
Potency means the concentration at half of the fitted maximal effect; tags describe the fitted curve by direction and shape.
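Wherever activity change, negative = inhibition is given: 0% = wells with enzyme and -100% = buffer wells without enzyme.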

SMILES | activity change, negative = inhibition | Potency
COc1ccc(C)cc1N(CC(=O)N/N=C/c1ccccc1C(=O)O)S(=O)(=O)c1ccccc1 | inactive: -0.128% | –
Cc1cc(-c2ccc([N+](=O)[O-])cc2)nc2ccccc12 | inactive: 11.2% | –
CC1=CC(C)(C)N2C(=O)C3(NCCc4c3[nH]c3ccccc43)c3cc(C)cc1c32 (centres undefined) | inactive: 5.98% | –
O=C(CNCc1ccco1)Nc1ccccc1-n1cccc1 | – | inconclusive: 22.4 µM [inhibitor, single point]
COc1ccc(C)cc1NC(=O)c1ccc(-c2ccc(C(C)=O)cc2)o1 | – | inconclusive: 31.6 µM [inhibitor, single point]
O=C(Oc1ccc(/C=N/Nc2ccccc2)cc1)c1ccccc1 | – | inconclusive: 25.1 µM [inhibitor, single point]
COc1ccc(CNC(=O)CC2C(=O)NCCN2CC(C)(C)C)c(OC)c1 (centres undefined) | – | inconclusive: 28.2 µM [inhibitor, single point]
Cc1c(O)ccoc1=O | – | inconclusive: 31.6 µM [inhibitor, single point]
CN1C(=O)C(O)(CC(=O)c2ccc(F)cc2)c2cc(Br)ccc21 (centres undefined) | inactive: -7.21% | –
O=C(C/C=N\OCc1ccc([N+](=O)[O-])cc1)Nc1ccc(Cl)cc1 | inactive: 10.1% | –
COC(=O)c1cc(OC)c(OC)cc1NC(=O)c1ccccc1 | – | inconclusive: 14.1 µM [inhibitor, partial curve]
COc1ccc(/C=N/NC(C)(C)C)c(OC)c1 | – | inconclusive: 31.6 µM [inhibitor, single point]
Cc1ccc2[nH]c(=O)c(C(c3nnnn3CCc3ccccc3)N3CCOCC3)cc2c1 (centres undefined) | – | inconclusive: 31.6 µM [inhibitor, partial curve]
COc1cccc(NC(=S)N/N=C2\CC(C)(C)Oc3ccc(O)cc32)c1 | – | inconclusive: 28.2 µM [inhibitor, single point]
Cc1cc(C)nc(-n2nc(C)c3c(C(=O)O)cc(-c4cccc(Br)c4)nc32)n1 | – | inconclusive: 28.2 µM [inhibitor, partial curve]
O=c1c2ccccc2nc2c3ccccc3cnn12 | – | inconclusive: 35.5 µM [inhibitor, partial curve]
CC(NC(=O)Cc1ccccc1)c1ccc(F)cc1 (centres undefined) | – | inconclusive: 39.8 µM [inhibitor, single point]
CCN=c1scc(C)n1/N=C/c1cc(Br)c(O)c(OC)c1 | – | inconclusive: 28.2 µM [inhibitor, single point]
C=CCn1c(SCc2nc3ccccc3[nH]2)nnc1-c1ccccn1 | – | inconclusive: 39.8 µM [inhibitor, single point]
Cc1cc2c([nH]c3ccccc32)c2c1OC(C)(C)C=C2 | inactive: -1.47% | –
COC(=O)CCCC[C@H]1SC[C@H]2NC(=O)N[C@]21O | inactive: -4.76% | –
NCCC[C@@H](CC(=O)N[C@@H]1CCCC[C@H]1C(=O)N[C@H](CC(=O)N[C@@H](CCC(=O)O)CC(=O)O)Cc1c[nH]c2ccccc12)NC(=O)C[C@H](Cc1c[nH]c2ccccc12)NC(=O)[C@@H]1CCCC[C@H]1N | – | inconclusive: 31.6 µM [inhibitor, single point]

SMILES | activity change, negative = inhibition | Potency
O=S(=O)(Cc1noc(-c2ccccc2Cl)n1)c1ccccn1 | inactive: 2.7% | –
COc1cccc(-c2ccc(C#N)c(SCC(=O)NCc3ccco3)n2)c1 | – | inconclusive: 31.6 µM [inhibitor, partial curve]
O=C(O)CSCc1cn2cc(Cl)ccc2n1 | – | inconclusive: 39.8 µM [inhibitor, single point]
O=c1ccc2cc3c4c(c2o1)CCCN4CCC3 | – | inconclusive: 31.6 µM [inhibitor, partial curve]
N#C/C(=C\c1cn(Cc2ccccc2)c2ccccc12)C(=O)NCc1ccco1 | – | inconclusive: 35.5 µM [inhibitor, single point]
O=c1cnn([C@@H]2O[C@H](CO)[C@@H](O)[C@H]2O)c(=O)[nH]1 | inactive: -4.9% | –
O=C(CN1CCN(S(=O)(=O)c2ccccc2[N+](=O)[O-])CC1)NC(=O)NCc1ccco1 | inactive: -2.87% | –
CC1C2(C)OC(=N)C(C#N)(C(C)O2)C1(C#N)C#N (centres undefined) | – | inconclusive: 28.2 µM [inhibitor, partial curve]
CN1CCCN(C(=O)Cc2c(Cl)cccc2Cl)c2nc3ccccc3nc21 | – | inconclusive: 28.2 µM [inhibitor, partial curve]
Cc1cc(NC(=O)CSc2nnc3c(C)cc4cc5c(cc4n23)OCO5)no1 | – | inconclusive: 39.8 µM [inhibitor, single point]
COc1cc(C2CC(=O)Oc3c(C(CCN4CCN(c5ccccc5)CC4)c4ccc(N(C)C)cc4)c(OC)cc(OC)c32)cc(OC)c1OC (centres undefined) | inactive: 3.57% | –
CCN(CC)S(=O)(=O)c1ccc(N=NC2=C(O)CC(C)(C)CC2=O)cc1 | inactive: -1.62% | –
Cc1ccc(NC(=O)C(=O)C2C(=O)Nc3ccccc32)cc1 (centres undefined) | – | inconclusive: 31.6 µM [inhibitor, single point]
COc1ccc2[nH]c(C(=O)NCCc3ccccc3)cc2c1 | – | inconclusive: 25.1 µM [inhibitor, partial curve]
CC(CNC(=O)c1cncc(O)c1)NC(=O)c1cncc(O)c1 (centres undefined) | – | inconclusive: 28.2 µM [inhibitor, partial curve]
COC(=O)c1cc2c(ccn2-c2ccc(F)cc2)n1CC(=O)N1CCN(C(=O)c2ccco2)CC1 | – | inconclusive: 25.1 µM [inhibitor, partial curve]
COc1ccc(-c2cc(CNC(C)=O)on2)cc1 | inactive: 1.62% | –
Cc1ccc(OCC(=O)c2cc(C)n(Cc3cccs3)c2C)c([N+](=O)[O-])n1 | inactive: 1.16% | –
COc1ccc(OC)c(-c2nc3ccccc3nc2-c2ccccc2)c1 | – | inconclusive: 35.5 µM [inhibitor, single point]
CCN(CC)C(=O)CSc1n[nH]c(=S)n1N | – | inconclusive: 20 µM [inhibitor, partial curve]
CCOC(=O)NN1C(=O)c2ccccc2NC1c1ccc(OC)cc1OC (centres undefined) | – | inconclusive: 28.2 µM [inhibitor, partial curve]
CC(C)(C)S(=O)(=O)c1cnc(-c2cnccn2)nc1N | – | inconclusive: 22.4 µM [inhibitor, single point]
